{"source": "the supplement of paper PMC10681739", "note": "± gives the standard deviation of the averaged measurements. Over roughly 4,000 sequences, “arbitrary fluorescence units” has its median near 830; the highest 2% begin near 6,500. This part holds few or none of the hits.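 Note: Full-length recombinant human RUNX1 bound to double-stranded DNA microarray spots, detected with an Alexa488-labelled secondary antibody after the anti-RUNX1 primary, read as scanned spot fluorescence.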", "data": [{"molecular_target": "RUNX1 (UniProt Q01196)", "sequence (Q01196 whole entry)": "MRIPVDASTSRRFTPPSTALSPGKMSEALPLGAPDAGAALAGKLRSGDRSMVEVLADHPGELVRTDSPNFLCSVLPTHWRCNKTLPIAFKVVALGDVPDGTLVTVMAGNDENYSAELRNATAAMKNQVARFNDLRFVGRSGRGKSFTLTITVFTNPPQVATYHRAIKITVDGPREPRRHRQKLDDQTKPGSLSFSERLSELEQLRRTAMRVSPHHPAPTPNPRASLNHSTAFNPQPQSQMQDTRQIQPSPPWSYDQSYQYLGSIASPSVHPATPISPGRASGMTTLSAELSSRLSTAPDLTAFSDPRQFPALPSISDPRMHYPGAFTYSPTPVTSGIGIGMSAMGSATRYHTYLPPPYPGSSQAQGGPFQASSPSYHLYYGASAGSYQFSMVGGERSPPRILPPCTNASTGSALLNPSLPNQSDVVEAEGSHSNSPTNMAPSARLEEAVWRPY", "assay": "RUNX1 binding intensity (PBM fluorescence), RUNX1 alone (arbitrary fluorescence units); higher = stronger binding", "conditions": "RUNX1 concentration 2 nM; ETS1 concentration 0 nM", "protocol": "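gcPBM on 36-bp genomic-derived probes (partner site mutated) containing one RUNX1 site and no ETS1 site. Recombinant human RUNX1 (2 nM) was incubated alone or with ETS1 (25 nM) and detected by anti-RUNX1 antibody fluorescence. Values are medians over 4 replicate spots (not normalised). The probes sit in constant array flanks that are not printed.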", "values": [{"sequence": "GATGACTGCCTCAGTTCAGGGCTATGTGCGGGGGAG", "RUNX1 binding intensity": 786}, {"sequence": "GTGGGGCGGGCTTCAGGCGCTCCCACCGCGAGCCGA", "RUNX1 binding intensity": 659}, {"sequence": "ACGCGTGCGGGGGAGGTGGCTTCTTACGGCCGGGCC", "RUNX1 binding intensity": 770}, {"sequence": "GGGACAACCGCGGGCCTCGCTCCTCCCCGTACGGGG", "RUNX1 binding intensity": 839}, {"sequence": "AGCGACAGCGGCTGCTCTCTGGCCGCAACATTCTTT", "RUNX1 binding intensity": 884}, {"sequence": "AACCAGTTCATCATGGGAGCTGCTGCGGGTTCTTCA", "RUNX1 binding intensity": 733}, {"sequence": "GTTGAGTTCCAGGGGAGGTTGAGTTCCTGCGGTCAA", "RUNX1 binding intensity": 1040}, {"sequence": "ACCCCTTCAGCAAGCACTCACCCACAGCCAGGCTCC", "RUNX1 binding intensity": 980}, {"sequence": "GAGGGCTGCTTGCTGCTCTGTGGAGGCCGCAGCGGG", "RUNX1 binding intensity": 709}, {"sequence": "TTGCTTTATCACCTCCTGTTTGAGGTTTATATCCAT", "RUNX1 binding intensity": 1170}, {"sequence": "ACATTCTTACGGTTGGACCTCCGCGGTCAGCGCTGT", "RUNX1 binding intensity": 1130}, {"sequence": "TCGTGCAAATTCCCCAAATGTGGGAAGCTCGACTGC", "RUNX1 binding intensity": "700 ± 27"}, {"sequence": "ACGTCGTCGCCGCAGGGCCCCTTGCGCCTCCGTTCC", "RUNX1 binding intensity": 1030}, {"sequence": "GGGCGGTTACCGAGGCCCGCCACCGCCTGAAGGGTG", "RUNX1 binding intensity": 752}, {"sequence": "CAGGTGTTCAAGAAACAAAACCACAGACTTTTTCAC", "RUNX1 binding intensity": 3140}, {"sequence": "GTCCCCGACTTTCGCTCTCGGTTGGTGGTTGGCTTT", "RUNX1 binding intensity": 918}, {"sequence": "AGCGGTATGCTGTTGTCTTACTGTGGTGACGTCATC", "RUNX1 binding intensity": 727}, {"sequence": "CTTAAACCGGCCACAACAGCTCACCCATCGTGTCGG", "RUNX1 binding intensity": 842}, {"sequence": "GCAGTCGAGCTTCCCACATTTGGGGAATTTGCACGA", "RUNX1 binding intensity": "699 ± 20"}, {"sequence": "TGCCCGCGGGCCGCAGCCACCGTATTTGCGCGTTTT", "RUNX1 binding intensity": 811}, {"sequence": "CTGGGAGGATCTGACCTCAACCTTCCAGCTGCACCC", "RUNX1 binding intensity": 839}, {"sequence": "TCCCTTGCTCCTCCCTCAGCCATATGCGGTGCTGTA", "RUNX1 binding intensity": 1050}, {"sequence": "GCTAACCACCGACCTCGAAGCAGAGGAGGTGCAGTC", "RUNX1 binding intensity": 857}, {"sequence": "CCTCCCGGCTTTCGTTCCTTGACCACCTCCTTCTCG", "RUNX1 binding intensity": 1980}, {"sequence": "CGGCCGCCCGGCCTCCTCTCCCGCCGCAGCCCTGGC", "RUNX1 binding intensity": 863}, {"sequence": "AGCGCCGGGAGTGTGTCTGCGTAAAACTGCGGCTCG", "RUNX1 binding intensity": 739}, {"sequence": "GCCTGGTGGCTGAAAGGCTGCGGCCCCGCGCCAGAG", "RUNX1 binding intensity": 761}, {"sequence": "CTCAATTCAGACCACCAACACGGCCGTAAGCAACTC", "RUNX1 binding intensity": 868}, {"sequence": "TTGACCACAAAGGAAGGGCAGATGGCACGAAACAGG", "RUNX1 binding intensity": 1110}, {"sequence": "CCTGGGAGCTGCTGCGGGTTCTTCCGAGAATCCGAA", "RUNX1 binding intensity": 846}, {"sequence": "GTGCTGTGACCACAACGTACACAGCAGCAAGGAAGG", "RUNX1 binding intensity": 1510}, {"sequence": "GGCAGGCACCACAGAAGCCGGGCTCCCGTCTGACTG", "RUNX1 binding intensity": 682}, {"sequence": "TGCCATCTTGTGGTGGCGCCGGGTTTGCGCTCAGGC", "RUNX1 binding intensity": 778}, {"sequence": "GAGCACATGAAAAGCTGGTGCCAACCACAAGTGCTT", "RUNX1 binding intensity": 861}, {"sequence": "TCTGCGGGAGAGGCTGCAGCGGAGGCCGAAGCAGGA", "RUNX1 binding intensity": 731}, {"sequence": "TCTCTTCTCCCCAGCCGCCCGAGACCACAGCCACTC", "RUNX1 binding intensity": 1600}, {"sequence": "ACAGCGCCTCTGCCTGCTCTACCACATCTGATGTCC", "RUNX1 binding intensity": 907}, {"sequence": "AGTGTGGTAGAGAGATATTTTTTGTCTCCGTGTTGG", "RUNX1 binding intensity": 796}, {"sequence": "TACATAGCCTGCATTCTCAGAAAAACCACAGGCTAG", "RUNX1 binding intensity": 1000}, {"sequence": "GACCACCTCCTTTCTGTGTTTTGTGGTTTCACAACT", "RUNX1 binding intensity": 2680}, {"sequence": "AGCGAGCGGTGGCTGTGCCAGGCGTTCCATCTGGCA", "RUNX1 binding intensity": 664}, {"sequence": "AAGCCATTTTGCGGCTAAAGCCTTTCAGCCCTTAAA", "RUNX1 binding intensity": 1030}, {"sequence": "AACTGGGCTGAAAGAACGGCTAACCGCAAGCTGCCG", "RUNX1 binding intensity": 13200}, {"sequence": "TTTACAGGCAATTACAGGGGTTAAACCAAACCACAA", "RUNX1 binding intensity": 1230}, {"sequence": "TATGTCTGAATTCCGCTCGTGGTTTCCATCTTAGCC", "RUNX1 binding intensity": 856}, {"sequence": "GCAGATCTGGTAACCACCATCTTTCAGGCTCCCTCG", "RUNX1 binding intensity": 1100}, {"sequence": "TTGTGGGTGTGTCTCTTTCGGTCTTACGTCCTAACA", "RUNX1 binding intensity": 854}, {"sequence": "TCAAAGAGGCAGTGGTTTATAATTGCCTCTTGACTG", "RUNX1 binding intensity": 738}, {"sequence": "CACCTCCTCTGTGACTGCAGGTTTCCAACCACAAGC", "RUNX1 binding intensity": 986}, {"sequence": "CTCATGGGCAATGTAGTTTCTAAACCGCGGGCGCCC", "RUNX1 binding intensity": 814}, {"sequence": "CTGGCTACAGTAAAAACAAAGTCAAACCACAGCACT", "RUNX1 binding intensity": 785}, {"sequence": "ATGGAAAGGCAGTCGGTGGGAAACCGCCTCAGCGGT", "RUNX1 binding intensity": 696}, {"sequence": "GGTCCATGAAGACGTCAAGGGCTTGGTTTTGTAAAC", "RUNX1 binding intensity": 709}, {"sequence": "GAAGCTCTTGTGGTTCCTGGCGGCATCGTGTCCCTC", "RUNX1 binding intensity": "990 ± 130"}, {"sequence": "GTACTGCTTGTGGGAGAGCCCCACAGGCAATCCAGA", "RUNX1 binding intensity": 805}, {"sequence": "CGATATAACCACCCCTAAGCTAAACTACATGCTGGT", "RUNX1 binding intensity": 1190}, {"sequence": "GAGTCGTCACCGCACACTTGGTCCCGGGCTACATTT", "RUNX1 binding intensity": 1020}, {"sequence": "TCTTGCTGACCGCCCCTCCCAGTTCCCACTGGGCTG", "RUNX1 binding intensity": 1010}, {"sequence": "CGGCGGCCCCTGCGGCTTCAGGCTTGCTGGCCGTCA", "RUNX1 binding intensity": 804}, {"sequence": "CTGACTTGTTGTGGTCTCTGCCACTTGCTGAGGTGT", "RUNX1 binding intensity": 918}, {"sequence": "ACTGCGGGCGTTGCTAGCATGAAGGCCGAAGCGCGC", "RUNX1 binding intensity": 695}, {"sequence": "GCAGATACCACAGACTCTCTCCTTTGCTGCTGAATA", "RUNX1 binding intensity": 1280}, {"sequence": "ACTGGGGTTGCGGCGTCTAAGTGTTTCAGGTGGATT", "RUNX1 binding intensity": 833}]}]}
